Measured values as given in patent publication US20240058446A1, “CHIMERIC TIM4 RECEPTORS AND USES THEREOF” (CERO THERAPEUTICS, INC., priority 2019, published 2024).

Test system: Jeko-1 (CD72+) cells
Assay: CTX206 CAR-T co-culture with Jeko-1 cells, anti-CD19 staining of remaining target cells
Type: cell-based
Conditions: 96 hrs co-culture; 0.5:1, 1:1 and 2:1 E:T ratios; FIG. 6A
Protocol: FIGS. 6A-6C. Activation markers expressed in CAR-T cells upon CD72-target cell-specific activation are shown. FIG. 6A. CTX206 CAR-T cells were cultured with Jeko-1 cells for 96 hrs at 0.5:1, 1:1, and 2:1 E:T ratios followed by staining with CD19 to detect remaining Jeko-1 cells. Plots were obtained by excluding dead cells. Red squares indicate residual Jeko-1 cells left in culture. FIG. 6B. CTX206 and CTX208 CAR-T cells were assessed for expression and specific upregulation of indicated markers in response to Jeko-1 (CD72+) cells. Activation markers CD25 and CD137 were co-stained with CD4 and CD8 antibodies. T cells transduced with pCTX control vector served as a negative control. FIG. 6C. Upregulation of CD137 was measured in CTX206 or CTX208 CAR-T cells upon Jeko-1 target cell co-culture. […]
CD72 CAR-T cells were further characterized phenotypically and functionally in the context of CD72-target cell-specific activation. […] CTX206 and CTX208 CAR-T cells were assessed for expression and specific upregulation of CD25 and CD137 in response to Jeko-1 (CD72+) cells, as shown in FIG. 6B and FIG. 6C. […] Proliferation as associated with CD137 expression (FIG. 7) and CD25 expression (FIG. 8) in CTX206 or CTX208 CAR-T cells was evaluated 72 hours-post stimulation with Jeko-1 cells in the absence of cytokines. […] Cell Trace Violet dye dilution and anti-CD137 antibody staining were assessed by FACS. […]

B1: pCTX206: CD72-directed CAR (SEQ ID NO:87): sc02-004 scFv, IgG4 hinge, CD28 transmembrane and signaling domains, CD3ζ; expressed in T cells (protein)
chain: MLLVTSLLLCELPHPAFLLIPAEVQLVESGGGLVQPGGSLRLSCAASGFTFSGYLMSWVRQAPGKGLEWVAVISYDGSNKYYADSVKGRFTISRDNSKNTLYLQMDSLRAEDTAVYYCARARRDTNLFDYWGQGTLVTVLEGTGGSGGTGSGTGTSELTQSPSSLSASVGDRVTIT[… about 80 residues …]FGQGTKVEIKRAAAESKYGPPCPPCPFWVLVVVGGVLACYSLLVTVAFIIFWVRSKRSRLLHSDYMNMTPRRPGPTRKHYQPYAPPRDFAAYRS[… about 120 residues …]
modifications: pCTX206 CAR-GMSCFR signal peptide-sc02-004 scFv-IgG4 Hinge-CD28 TM-CD28 ICD-CD3z
notes: expressed in T cells
  remaining Jeko-1 target cells (anti-CD19 staining): Dose dependent decreases in target cells
